Laboratory results published in ChEMBL document CHEMBL1156829.
Whole data set: some 5,400 compounds, median “IFI” near 2, cut for the highest 2% near 22. Some of the results follow.

Assay: NOVARTIS: Inhibition Frequency Index (IFI) - the number of HTS assays where a compound showed > 50% inhibition/induction, expressed as a percentage of the number of assays in which the compound was tested.
Assay type: functional
Compound `COc1ccc(-n2c(CNC(=O)c3cccc4ccccc34)n[nH]c2=S)cc1` has an IFI of 0%. `COc1ccc(/C=C2\SC(=N)N(c3ccc4c(c3)OCO4)C2=O)cc1OC` gave an IFI of 2.44%. `NCCCC[C@H]1C(=O)Nc2ccc(O)cc2C(=O)N1C(C(=O)NCC(=O)O)c1cccnc1` (stereo not given in full) gave an IFI of 1.18%. With `O=C(NCCCCNc1ccnc2cc(Cl)ccc12)C(c1ccccc1)c1ccccc1` the IFI was 3.77%. In the case of `CCCN(Cc1cc(OC)c2c(c1)OCO2)CC1CC1`, the IFI is reported as 0%. With `COc1cc(OC)cc(C(=O)N2CCN(c3ccccn3)CC2)c1` the IFI was 7.69%. Work on `Cc1cc(Br)cc(Cl)c1OC(=O)c1ccno1` yielded an IFI of 1.65%. With `CC(=O)N(C1=C(N2CCOCC2)C(=O)c2ccccc2C1=O)c1ccc(Cl)c(Cl)c1` the IFI was 15.4%. With `COc1ccc(N2CCN(c3ncnc4sc(C(=O)NCc5cccnc5)c(C)c34)CC2)cc1` the IFI was 1%. Compound `COc1ccc(CN(C=O)/C=C2\Sc3ccccc3C2=O)cc1OC` has an IFI of 0%. `C(=NNc1nc2ccccc2[nH]1)c1ccc2c(c1)OCO2` gave an IFI of 8.33%. `Cc1ccc(C(=O)Nc2ccc(-c3nc4cc5ccccc5cc4[nH]3)cc2)cc1[N+](=O)[O-]` gave an IFI of 9.09%. `CC(C)OC(=O)NC(Nc1ccccc1)C(Cl)(Cl)Cl` (stereo not given) gave an IFI of 0%. `CC1(C)CC(N=c2cc(-c3ccccc3)oc3ccc(Cl)cc23)CC(C)(C)N1` gave an IFI of 11.4%. Work on `CC[C@]1(C2OC(C3O[C@](O)(CO)[C@@H](C)C[C@H]3C)C[C@H]2C)CCC([C@@]2(C)CC[C@@]3(C[C@@H](O)[C@H](C)C([C@H](C)[C@H](OC)C(C)C(=O)O)O3)O2)O1` (stereo not given in full) yielded an IFI of 8.2%. Work on `CN(C)c1ccc(/C=C2\SC(=Nc3ccc(O)cc3)NC2=O)cc1` yielded an IFI of 7.96%. For `CCOc1ccc(-n2cc(-c3ccccc3)c3c(SCc4cc(C)ccc4C)ncnc32)cc1`, the IFI was 0%. For `O=C1c2cc([N+](=O)[O-])ccc2-n2c1nc1ccccc1c2=O`, the IFI was 4.54%. Compound `CCOc1ccc(-c2nonc2NC(=O)c2ccco2)cc1OCC` has an IFI of 0%. Work on `CCOC(=O)c1c(CNc2ccncc2)n(C)c2cc(Br)c(O)cc12` yielded an IFI of 0%. With `O=C(CCCn1c(SCc2ccccc2F)nc2ccccc2c1=O)N1CCCC1` the IFI was 0%. Compound `N#Cc1c2c(c(N3CCN(c4ccccn4)CC3)n3c1nc1ccccc13)CCC2` has an IFI of 2.33%. `COc1ccc(C2=C(c3ccc(OC)cc3)C3(c4ccccc4)C(=O)C2(c2ccccc2)C2C(=O)N(c4ccc(OC)cc4[N+](=O)[O-])C(=O)C23)cc1` (stereo not given) gave an IFI of 0.73%. Compound `C[n+]1c(-c2ccccc2)cc(-c2ccccc2)cc1-c1ccccc1` has an IFI of 2.53%. `CC[n+]1c(/C=C2\Sc3ccc(C)cc3N2CCO)ccc2ccccc21` gave an IFI of 15.4%. Work on `CCC(=O)N(C1=C(NC)C(=O)c2ccccc2C1=O)C(C)C` yielded an IFI of 0%. `COc1ccccc1NC1=CC(=NS(=O)(=O)c2cccs2)c2ccccc2C1=O` showed an IFI of 7.69%. `COc1ccc(OC)c(-c2ccc(O)c(CN3CCCC(C)C3)c2)c1` (stereo not given) gave an IFI of 1.72%. Work on `Cc1ccc(C(=O)Nc2ccc(-c3nc4ccc(NC(=O)c5ccc(C)cc5)cc4[nH]3)cc2)cc1` yielded an IFI of 17.4%. `OC1=C2C(=Nc3ccccc3SC2c2ccc(Br)cc2)c2ccccc21` (stereo not given) showed an IFI of 1.07%. With `CCOC(=O)C1=C(C)NC2=C(C(=O)C(C(=O)OC)C(C)C2)C1c1cc(Br)c(OCC)c(OC)c1` (stereo not given) the IFI was 5.81%. Compound `CCCCCCCSc1c(O)c2ccc(Cl)cc2[nH]c1=O` has an IFI of 0%. Compound `O=C(Cc1ccccc1)NCc1nnc(SCC(=O)N2N=C(c3cccs3)CC2c2ccc(F)cc2)n1Cc1ccccc1` (stereo not given) has an IFI of 2.41%. Compound `CCN1CCN(C/C=C/c2ccccc2[N+](=O)[O-])CC1` has an IFI of 0%. Compound `COC(=O)[C@@H]1C[C@@H](NC(=O)c2ccc(OC)cc2OC)CN1Cc1ccc(C(F)(F)F)cc1` has an IFI of 3.48%. Compound `CCN1CCN(c2cc(C)c3cc(NC(=O)c4ccc(F)c([N+](=O)[O-])c4)ccc3n2)CC1` has an IFI of 6.67%. With `COc1ccc(CCn2c(SCC(=O)N3CCN(c4ccccc4OC)CC3)nc3ccccc3c2=O)cc1OC` the IFI was 1.19%. For `CN1CCN(c2cc(-c3cccnc3)nc(-c3ccncc3)n2)CC1`, the IFI was 0%. Compound `Cc1ccc(O)c(NC(=O)c2cnn3c(C(F)(F)F)cc(-c4ccc(F)cc4)nc23)c1` has an IFI of 2.27%. `CCCCCN(CC(=O)Nc1cc(C(C)(C)C)nn1-c1ccc(Cl)c(Cl)c1)C(=O)c1ccc2c(c1)OCO2` showed an IFI of 1.89%. Compound `CCCCN(C)Cc1ccc2c(NC(=O)c3ccc(C)s3)c(C(=O)OC)sc2n1` has an IFI of 1.72%. Compound `COc1ccc(C=NNc2nc(O)cc(-c3ccccc3)n2)cc1OC` has an IFI of 0%. With `CCC(Cc1cnc2nc(N)nc(N)c2n1)c1ccc(C(=O)N[C@@H](CCC(=O)O)C(=O)O)cc1` (stereo not given in full) the IFI was 17.9%. `CCCCNC(=O)N(CCCC(C)Nc1cc(OC)cc2cccnc12)Cc1ccc(OC)c(OC)c1` (stereo not given) gave an IFI of 2.86%. `CCN(CC)C(=O)COc1ccc(-c2nnc(N3CCCCC3)c3ccccc23)cc1` showed an IFI of 3.08%. Work on `Cc1c(Cl)cccc1NCC(=O)NN=C1CCCC1` yielded an IFI of 0%. In the case of `COc1cc2c(cc1OC)C1=NC(=O)C(C(C)C)N1C(SCc1csc(Cl)n1)=N2` (stereo not given), the IFI is reported as 3.66%. `CN(Cc1cc2ccc(F)cc2n(CCN2CCCCC2)c1=O)CC1COCCO1` (stereo not given) showed an IFI of 1.96%. For `CC(=O)N(C1=C(N2CCCCC2)C(=O)c2ccccc2C1=O)c1ccc(F)cc1`, the IFI was 8%. In the case of `O=C(c1ccco1)N1CCN(c2ccc([N+](=O)[O-])c(NC3CC3)c2)CC1`, the IFI is reported as 1.21%. `CCOc1ccc(C(=O)Cn2ccc(=NCc3ccccc3)cc2)cc1[N+](=O)[O-]` showed an IFI of 0%. `C=CCOc1c(Br)cc(C=c2sc3n(c2=O)C(c2ccc(OC)c(OC)c2)C(C(=O)OCC)=C(C)N=3)cc1OC` (stereo not given) showed an IFI of 1.46%. `CCN(CC)CCCC(C)NC(=O)CSc1nc2ccccc2c(=O)n1-c1cccc(Cl)c1` (stereo not given) showed an IFI of 3.67%. Compound `CC(=O)N(C1=C(N2CCOCC2)C(=O)c2ccccc2C1=O)c1ccc(Br)cc1` has an IFI of 0%. `CCCCc1nc(CN2CCC3(CC2)C(=O)N(CCc2ccccc2)C(=O)N3C)c[nH]1` gave an IFI of 10%. Compound `COc1cc(C(=O)ON=C(N)Cc2cccc3ccccc23)cc(OC)c1OC` has an IFI of 0%. With `COC(=O)c1cnn(-c2ccccc2)c1C=NOC(=O)c1ccccc1` the IFI was 1.07%. With `O=C(O)c1ccc2c(c1)N=CN(C1CCCCC1)C2` the IFI was 1.25%. Compound `CCNC(=O)/C=C/c1ccc(C(C)(C)C)cc1` has an IFI of 0%. With `CC(C)(C)c1ccc(C(=O)NCCCCNc2ccnc3cc(Cl)ccc23)cc1` the IFI was 3.19%.
